According to the supplement of paper PMC3334620:
Whole data set: some 33,000 sequences, median “E-score (-0.5 to 0.5)” near -0.032, cut for the highest 2% near 0.36. Some of the results follow.

What follows are sequences tested against T1, Sko1 (UniProt Q02100) (assay: PBM E-score (8-mer binding enrichment) (E-score (-0.5 to 0.5)); higher = stronger / more preferred TF binding; most listed sequences are background and not binding sites). Conditions: protein concentration: 200 nM; construct: GST-full length.
T1 sequence: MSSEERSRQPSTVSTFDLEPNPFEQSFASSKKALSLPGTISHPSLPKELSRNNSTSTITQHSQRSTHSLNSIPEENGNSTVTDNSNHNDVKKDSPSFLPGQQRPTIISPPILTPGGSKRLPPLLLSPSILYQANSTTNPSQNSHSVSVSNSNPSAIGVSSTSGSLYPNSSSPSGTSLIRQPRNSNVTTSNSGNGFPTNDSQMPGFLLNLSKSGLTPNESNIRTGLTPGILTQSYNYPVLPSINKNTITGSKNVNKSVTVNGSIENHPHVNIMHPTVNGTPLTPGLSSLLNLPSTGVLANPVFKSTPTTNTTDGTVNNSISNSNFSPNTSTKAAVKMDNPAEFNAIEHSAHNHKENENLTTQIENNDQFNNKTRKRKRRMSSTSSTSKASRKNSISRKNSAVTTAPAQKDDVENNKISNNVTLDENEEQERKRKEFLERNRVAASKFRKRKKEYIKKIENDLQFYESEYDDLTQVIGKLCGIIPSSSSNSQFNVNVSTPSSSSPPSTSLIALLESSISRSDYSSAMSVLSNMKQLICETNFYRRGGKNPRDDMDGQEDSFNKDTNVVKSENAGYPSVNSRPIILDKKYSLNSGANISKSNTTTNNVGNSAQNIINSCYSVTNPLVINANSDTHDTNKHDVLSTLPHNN
How it was run: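 E-scores (a modified Wilcoxon-Mann-Whitney statistic) were assigned by the Universal PBM Analysis Suite to every ungapped eight-base word pooled with its reverse complement. The input came from universal all-10-mer Agilent arrays made double-stranded by primer extension and probed with GST-tagged yeast transcription factors at about 100-200 nM. Fluorescent anti-GST detected bound protein, and masliner normalised the scans.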

Sequence	PBM E-score
ACTTAAGA	0.129
ACAATAGC	-0.0393
GTGCGGCA	0.0044
GAAACATA	0.134
AGGATGTC	-0.0225
CTGGCGGA	-0.21
CGATGACA	0.283
CTAGCCCA	-0.191
ATCAGCTA	0.104
AGTTCAGA	-0.0766
AGGACCTG	-0.38
CGCTCACA	0.0942
ATAGACGA	0.114
CCATGAAG	-0.0295
GCGCACTA	0.0239
GCGCGCCC	-0.239
CTACAACA	-0.00923
ACTATTGC	0.114
AAGTGAAA	0.0681
CTTAATCA	0.0983
ACGACATA	0.354
AGCAGCGA	-0.171
AACGTTGC	0.176
GCAAACCC	-0.249
GTAAGGGA	0.107

Sequence	PBM E-score
AAACGGGT	-0.143
CCTATAGG	-0.205
CACCGCCC	-0.141
CTTGCTGA	-0.0392
CGAGTGTA	-0.0343
CGCGAGTC	-0.0174
ACACGGAT	-0.00693
CTAGGACA	-0.157
ACAATACT	0.151
AAGCTTCA	-0.111
TGCATAAA	0.191
AAGACTCT	-0.07
GGTTGTCA	-0.134
AGGACCTC	-0.239
AGTTCCGA	-0.067
ACTTCGTC	0.165
GCATTTGA	0.134
ACGGGGTA	-0.0628
CCGACTTC	-0.423
CACGAAGC	0.0394
ACTTGCCT	0.033
GTTTCCCA	-0.143
GATGCGAC	-0.0585
AAAATTCC	-0.152
CGCGGCAC	-0.149

Sequence	PBM E-score
ACAGTCGT	-0.0126
GAACAGCA	0.0516
GTGGCGAA	-0.0119
GAAACGTA	0.398
CCGAGGAC	-0.166
ATGACAAC	0.269
AAGCGACT	-0.0317
GCTCAACA	-0.0263
ACGGGCAG	-0.167
CCACAGTA	0.126
GAGATTAA	0.0696
ATTTGTTA	0.154
AGAGGCTC	-0.268
CATTAATG	0.13
GGGACTAC	-0.228
CTTGGTAC	0.17
AATATGCC	-0.24
CTTTTCAC	0.105
CTGATTAA	0.118
CAGTAATA	0.257
CGAGCGGA	-0.044
CAATGCAC	0.0332
GAGGGCGC	-0.132
GGAGAGCA	-0.26
CATAGATG	-0.242

Sequence	PBM E-score
GACGCAGA	0.194
GGAAGGAC	-0.112
GAGTTAAA	0.0434
ATCTGAAG	-0.0841
AATCGTTC	0.0316
CCTGGGTC	-0.197
AGTTGATG	0.111
AAGTACAG	-0.0644
CGCAGCAA	-0.0188
AAATTGCT	0.0342
GGGCGCTA	-0.0254
ATCCCAAG	-0.247
ACCCACAC	-0.0169
TGTCTAAA	0.196
CGTCCAAG	-0.155
ATCTTATC	0.0347
AGATGTCG	-0.045
ACCCGCGA	-0.176
AACTCGGG	-0.12
AGGCGGCA	-0.145
CCTAAGAC	-0.162
CATGGTCG	-0.101
GGCAACCC	-0.242
AACACATT	0.041
CAACACTA	0.15

Sequence	PBM E-score
GAAATGGA	-0.149
ACTATGCT	-0.0356
AGTTGTCG	0.178
TTAAATAA	0.117
TCGCGCAA	0.241
ACAAGGCG	-0.232
ATCCGTAA	0.0757
CAGGAATG	0.0412
CGTGGAGC	-0.183
GAGCAGAA	-0.0557
CGCGCCTA	-0.0485
GGATAGGA	-0.104
ACTTGGAT	0.0792
TGAGTAAA	0.0672
AAAAAAAT	0.149
CTCAGAGC	-0.163
GAAAACGA	0.0788
TGGTAACA	0.215
AAATTACC	0.0333
AGAGTAGC	-0.00834
GAGAAAAC	-0.00846
ATATGAAA	0.115
ATAATTGG	-0.0453
AATATAGT	0.173
CTGCAGTC	-0.113

Sequence	PBM E-score
TCCGACCA	-0.247
TATCAGAA	0.0439
ATGAGTTC	-0.0909
ATAACCGG	-0.211
AGACTATG	-0.0224
GTATTATA	0.235
CCCAAGTC	-0.34
CACAGAAA	0.0195
GACTATGA	0.19
CGGCATAA	-0.051
CCTCTCAC	0.0369
TTAACCAA	0.0412
GAAACGCA	0.126
CTCAGGGC	-0.255
CTGCCTCC	-0.241
AAAGGGGC	-0.272
TCCCTACA	0.0727
AAGCCGGG	-0.114
GTAGGAAC	0.132
GAATACCA	0.111
CGTTGTGA	0.105
CTTCCGCA	-0.22
CTATGGAA	-0.0767
CTGGAAAG	-0.161
ACATATCA	0.173

Sequence	PBM E-score
CGAGTGGC	-0.313
CAAACATG	0.0181
ACCTTGGC	-0.147
CACAATAC	0.101
ACGTCGTC	0.387
AGCCAAAA	-0.0432
AGTTCGTA	0.26
TGCGTCCA	0.155
CTTGGTTC	0.0171
CCCGGTAC	-0.0432
CCTGCACA	-0.226
ATGCATAA	0.175
CTTGGTGC	-0.315
ATGCATCC	-0.281
GAATCCTA	-0.00199
CTAGGGCA	-0.422
AGTCTCGC	0.0689
AAAGCCTA	0.0391
TCTCTTCA	-0.0732
CTCCCCAG	-0.352
ATGTGTTA	0.242
TAGGTGAA	0.145
GCGACCAA	-0.0498
CGCGTAAA	0.311
AACGGCAA	0.00579

Sequence	PBM E-score
CATTCATA	0.105
ACCCTAAG	-0.189
CTCCTCAC	-0.183
GTAGTCCA	0.0309
GCGCGGCA	-0.112
TACCGTAA	0.253
AAAGGGTC	-0.231
AGGGCACG	-0.0627
GCTATCGA	-0.126
TCAACACA	0.231
AGTCCAAT	-0.021
CTCAATAA	-0.0259
CCTCGTGC	-0.207
CAAGCGAC	-0.0544
ACTCATAG	0.0586
GCTTAGCA	-0.0816
CCTCGGAA	-0.184
GCACTAGA	-0.156
AACGATAG	0.0884
ATACGTTA	0.436
CTAGCCCC	-0.218
ATCAGAGC	-0.00388
ACCCTCTA	-0.224
ATAGTCCC	-0.199
AACGACAC	0.0493

Sequence	PBM E-score
ATCCGGAA	-0.116
ACATGGAT	0.18
AACTGCGT	0.317
AAAATTAT	0.284
CATCTTTA	0.0696
ATCTTCAT	0.00049
GATGAACA	0.0426
CTTGTTTC	0.0414
AACTTCGA	0.0163
CTCAGATA	0.12
CTTATTGC	-0.146
AAGTATGT	0.0767
CAGGCGCA	-0.194
AGAACGTG	0.246
AATAACAT	0.194
CAACCTTG	-0.0863
CGGTGGGC	-0.195
AGCAGTGC	-0.123
TAGGCGGA	-0.0852
TTGCGCAA	0.287
TAGGGTCA	-0.0745
ACATCGAC	0.0663
AATTTACT	0.174
AGACCGCC	-0.249
CCCGGACG	-0.0953

Sequence	PBM E-score
ATCACCAA	0.0298
ATCCCACC	-0.13
CGCATTTA	0.0968
CCCAGAGG	-0.256
ATCCGAAG	-0.05
AGGCGCAA	-0.0633
TTCCGCAA	-0.163
ATATCCCG	0.044
CATAGTAC	0.0534
GGTTCCGA	-0.251
GAACCCTC	-0.252
CGAACTAG	-0.00834
CGTCTATC	0.189
CAGTTTCA	-0.107
CTTGTAGA	-0.109
GTACCCAC	-0.111
GTAACATA	0.0632
GTTTGCTA	0.119
CCACTATC	-0.119
TTAACGAA	0.183
AGGCACGC	0.0182
GAACTTAA	0.0436
CTTCCGCC	-0.176
ATCATTGA	0.272
GTATGACA	0.35

Sequence	PBM E-score
ATGAGAGC	-0.0622
TACGTCAA	0.479
CCTGAGCG	-0.0783
AACTAATG	0.158
ACCATTAA	0.246
ATTCCTTA	0.0463
AACCCAGA	-0.178
AACGGTGT	-0.203
GCAGTGAA	0.133
CACACATA	0.0532
CAGTACTC	-0.219
CTGTGCAA	-0.0253
CCGTGACC	-0.28
AGGCTCTC	-0.231
CCCTAGTC	-0.293
GAAGGCTC	-0.149
CTGACGCA	0.403
CCACCGTA	-0.0821
CTAAGAAC	-0.0466
TCTTCGAA	-0.0561
CACATGAA	0.166
ATAAGAAC	0.12
CAGCACGG	-0.21
ACGAGTAG	0.0721
AACTTATA	0.187

Sequence	PBM E-score
ATCAGCGG	-0.159
AATTTGCC	-0.129
CTTCGACC	-0.0696
ATACCAAT	-0.0776
CAATGCCG	-0.128
GATTAGCC	-0.151
TATTCTCA	0.0674
AAATACGG	0.14
CCGTCAAG	-0.0482
CAACGGGG	-0.137
ATCACCAT	0.141
AACAATAA	0.141
CATTTAAC	0.147
CCCAAGGA	-0.251
CTCGCCAC	-0.103
ATTCACCG	0.0212
GTATCGAC	0.121
AACCATGT	0.0529
GCAACACA	-0.0249
ACCGAATG	0.104
AGTCTAAC	-0.134
AAACGCCG	0.0595
GAGAGGGC	-0.397
ACCTCTGA	-0.142
CGAGATGA	0.0517

Sequence	PBM E-score
CCCCTGGC	-0.409
CAGTGAAG	-0.0921
AACCTGGC	-0.122
ATCTTGGG	-0.0925
GACTAATC	-0.0517
GTCCCAAC	-0.0885
GTAGAGTA	0.0442
GGTCACAA	-0.151
CAAGGTGC	-0.0355
ACTAATTC	0.125
GATGCATC	0.124
AGCATTCA	0.0119
AAAGGCCC	-0.14
ATCCATAA	0.153
AGTGATTC	0.0268
ACGGTAAT	0.161
ACATCAGA	0.122
AGACGTGC	0.241
AGCCTGTA	-0.17
GCGTAAGA	0.378
AACGGAGG	-0.184
GACTACCC	-0.128
AATAGGCG	-0.19
AAAATCCA	0.133
AACTCTGT	0.0449

Sequence	PBM E-score
CGCCTACC	-0.145
ACCATCAC	0.114
GCGAACTA	0.122
AGCATTGC	-0.041
CGACCGGC	-0.283
GGGTACAA	-0.0777
CGGCAAAG	-0.3
ACGTTTCA	0.333
AAACATCT	0.121
GGTATCCA	-0.116
AGTAATCG	0.0515
AACTAGCA	-0.0475
GTTGGTCA	0.169
ACATCCTG	0.0143
AGATCTGC	-0.0271
AGACTGCT	-0.152
GCGTTCCC	-0.177
GTCCTACA	0.0593
AGCATAAG	-0.153
ACTTGATC	0.0278
GGACGTTA	0.251
AATCTGTA	0.022
ATCACATC	0.0918
